Measurements as given in the supplement of paper PMC10126150.
Sequences with one replicate were seen in a single cluster, so their values are uncertain.

Test system: ATP
Assay: switch fluorescence ratio, 500 uM ATP over buffer (Cy3 cluster intensity, sum of 5 cycles each) (fold (ratio)); higher = stronger signal-on switching upon ATP binding; sequences stand for … in TCGTCGGCAGCGTCAGATGTGTATAAGAGACAGTTTTTTTTTTTTTTTTTTTTTTTTT…TC
Details: aptamer strand: ATP DNA aptamer (quencher-CACCTGGGGGAGTATTGCGGAGGAAGG + anchor), 100 nM annealed; ATP concentration: 500 uM; one replicate
Summary of the method: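 Cy3-labelled switching-strand clusters on a modified Illumina MiSeq flow-cell were annealed to 100 nM quencher-labelled ATP aptamer, imaged in selection buffer, then imaged after 15 min with 500 uM ATP at 22 °C. Five buffer/ATP cycles ran, with NaOH stripping and re-annealing between them. The fluorescence ratio is summed target-cycle over summed buffer-cycle Cy3 intensity per cluster, averaged per switch-domain sequence. Clusters outside 100-1000 RFU were excluded.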
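Note: ATP exposure 15 min at 22 °C before imaging.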

Row | Sequence | switch fluorescence ratio
1 | TGCTTATACT | 1.2
2 | ATTGTTCGAA | 1.04
3 | CCAACGGGAT | 3.02
4 | GGTTCTAAGC | 1.05
5 | GAGAACGAAC | 1.19
6 | CGAGATTTGG | 0.963
7 | GGACTATTAG | 1.08
8 | ATCGCGCTTG | 1.03
9 | AGTGTTCTG | 0.958
10 | TTTGTCCC | 1.02
11 | GATTTACTTC | 1.01
12 | CAGGATTAGT | 0.992
13 | CAAATCGCAT | 1.17
14 | GCTCTGCCAA | 1.79
15 | GTAATAGTGA | 1.03
16 | AAGGTTGAAG | 1
17 | GTGGAGAGGA | 0.924
18 | CTAAACAACA | 1.05
19 | TTACTTATAC | 1.17
20 | TTCTGGTTGC | 0.998
21 | ATTTTCATG | 1.03
22 | TTGTTAAGA | 0.991
23 | GATATATCAT | 1.03
24 | GGTGTTACCT | 1.05
25 | AGTGATTCAG | 0.949
26 | GGTATGTCCC | 0.972

Row | Sequence | switch fluorescence ratio
27 | TCAACAATTG | 1.01
28 | AGAGTAGCGC | 1.14
29 | AGCTGCGAGG | 0.931
30 | CCAGTCCAGT | 1
31 | TTGGGCATTA | 0.999
32 | GGATTAAACA | 1.03
33 | GCCGGTGAGC | 0.976
34 | CACAGATGGG | 1.02
35 | CGACAGCGCT | 1.05
36 | TGAGGGTGCA | 1.04
37 | AAAGTTACGA | 1.02
38 | AAGAAAGGAT | 0.99
39 | TTTTCTCGA | 1.01
40 | TATAACAATA | 1
41 | GCATGATCAT | 0.997
42 | GAGGGAGATA | 0.949
43 | ACCGTATCGA | 1.04
44 | ACATGAAACT | 0.989
45 | AACTGGCCGG | 1.01
46 | GTTAAAGGCA | 0.948
47 | AGCAGTGTT | 0.978
48 | ACAGGCCCGT | 1.03
49 | TTAGTAGCCC | 0.977
50 | GATTTGCTA | 1.01
51 | AGGCGCTAGG | 0.969
52 | CTATTGTACT | 1.02

Row | Sequence | switch fluorescence ratio
53 | CATAGCGACC | 1.38
54 | TGAGGCTATT | 1.01
55 | CGTTTGCGT | 1.03
56 | GTCCATTCGA | 1.03
57 | AGCGGAATAA | 1.38
58 | GTTTATGCGG | 1.04
59 | GGCGCGTCCG | 1
60 | TTCCAGTTCT | 1.01
61 | TTACAGATCG | 1.06
62 | CCAATGTGTA | 1.04
63 | GTCCAGTAAA | 1.01
64 | AGTATACGAC | 1.12
65 | CCGTCGACGC | 1.16
66 | ATAGTAGGGC | 1.08
67 | CCCGGGCTC | 0.984
68 | TTCTAAGGTG | 1.44
69 | GAGCGATCCT | 1.15
70 | AAAGGGCTTA | 0.991
71 | CTTAACTGTA | 1.07
72 | GTCATTTG | 1.05
73 | CCATGTGACG | 0.982
74 | TAATTGGGTA | 0.971
75 | CAATTTGGCT | 1.03
76 | TGGGCAACGT | 1.03
77 | ACCTCGACGA | 1.17
78 | TGTCCATGAC | 1.02

Row | Sequence | switch fluorescence ratio
79 | TCACGAACAT | 1.33
80 | CGGGGACTCC | 1.08
81 | CGACTGTTCT | 1
82 | AGACGAAGGC | 0.997
83 | CAGGCGCCGT | 0.999
84 | GGCAGTGGAT | 0.964
85 | TACTCTCTCT | 1.04
86 | CCATATGCGG | 1.05
87 | TAACGCGAAT | 1.18
88 | GCAATGGCTG | 1.11
89 | AATCACTTAG | 1.09
90 | GGGGGCCTCT | 1.04
91 | GGGGTTCCAA | 1.02
92 | TTATAAAATT | 1.02
93 | GAACGCGAGC | 2.34
94 | GCGCGAAGCA | 1.04
95 | CGTAAGCTAA | 1.15
96 | TAAGTGCTTA | 0.974
97 | AGTCAAAATT | 1.01
98 | AGGTTCGGT | 0.976
99 | AGTTCATAGG | 0.987
100 | TTTAATTCAG | 0.985
101 | TCATTATTGT | 0.97
102 | GACGGACAGC | 1.35
103 | GGTCCGGCTA | 0.984
104 | TTTTTCAGTC | 0.95

Row | Sequence | switch fluorescence ratio
105 | GTTTCAGGAG | 1
106 | ATTATATTTG | 0.992
107 | AAGAATTAGA | 1.03
108 | AAAAGGATGC | 1.07
109 | TCTCGTCGCG | 0.993
110 | AATTGCAGAA | 0.987
111 | CTTGTAAACG | 0.985
112 | TGTGTCGTTT | 0.972
113 | TGGTCTGGAT | 0.965
114 | CAGGTAATC | 1.08
115 | TGGGTGCGCT | 0.975
116 | CATGCTTATG | 0.984
117 | AGCTAGGACT | 1.08
118 | GGCGAAATCG | 0.968
119 | ACCCTAGCTG | 1.06
120 | CTTTCGGGAC | 1.19
121 | TAGATGTGGA | 1
122 | GAGTTACAGA | 0.973
123 | TAAACTGTCC | 1.53
124 | AAACTAGTA | 0.958
125 | TTTGTGACAA | 1.02
126 | GAACGCTTTG | 1.08
127 | TGAACAATTT | 1.04
128 | GAGGAGGAGT | 0.982
129 | GAAGAGTTGG | 0.961
130 | CTATCTAGAT | 1.01

Row | Sequence | switch fluorescence ratio
131 | ACGTTGTGTC | 0.982
132 | TGCCGATTCC | 1.09
133 | TCGAGCGGGA | 0.998
134 | AGACGTAAAA | 1.63
135 | CTCATAATCA | 1.03
136 | AGTCCATCCA | 1.04
137 | CGTGTCCGCT | 1.04
138 | CTCGAAGTGC | 2.03
139 | AGAAAAGCCA | 0.969
140 | AGGGCCACTT | 0.98
141 | GTACAATGAA | 0.976
142 | CATTATACTC | 1.08
143 | GCTGGGTGAG | 1.01
144 | GTGGATTAAG | 1.01
145 | TCGTCGTGCA | 1.02
146 | GTTTAACTGA | 1.01
147 | GTCCTGATTG | 1.01
148 | ACATCGAGCC | 1.03
149 | GCTTCGTCAA | 2.02
150 | GTTAGTTCTA | 0.964
151 | TGGCGGAGAT | 1.01
152 | TGTCGGGACT | 0.993
153 | GTTGTCAAAT | 1.06
